From PubChem BioAssay AID1508624 (National Center for Advancing Translational Sciences (NCATS), 2021) come the findings set out here.

Molecules are shown by their SMILES. The whole screen tested about 48,000 compounds, of which about 120 (0.25%) were called active. About 4% were inconclusive and are not listed. Calls follow the shape of the dose curve; as a rule, active = well fitted activation curve with a large enough effect; inconclusive = small, poorly fitted or top-dose-only effect, or another doubt; inactive = no such curve, though single readings can be large or run the other way. The list shows a part of the results.

The nature of the assay: Primary qHTS for Identification of Small Molecule Activators of Huntingtin-Antisense Promoter Activity. Also: nearly all actives have a fitted effect of over 55% in size. The conditions noted are these: HEK293 HTT-AS promoter firefly luciferase reporter, 24 h; series mostly up to 57.5 µM; activity change, positive = activation: at the top concentration. The gist of the method:
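HEK293 cells carrying firefly luciferase reporters were seeded at 2,500 per well in Opti-MEM and cultured for 24 h. They were then treated with compounds at up to 57.5 uM final for 24 h at 37 degrees C before Dual-Glo luminescence readout.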
On the technique in general: qHTS replaces the single test concentration by a dilution series.
On to `Cc1ccccc1CNC(=O)C(C)n1nc(C)n2c(cc3occc32)c1=O` (centres undefined), for which the “activity change, positive = activation” value is inactive: -14.5%.

With `COc1ccc(CC(=O)Nc2nc3c(s2)CC(C(C)(C)C)CC3)cc1` (centres undefined), the “activity change, positive = activation” value was inactive: 4.69%.

For the compound `COc1ccc(NC(=O)C2=CC(c3cccs3)=NS(=O)(=O)N2C)cc1`, the “activity change, positive = activation” value was inactive: -12.6%.

Regarding `Cc1ccc(NC(=O)CN2C(=O)CCSc3ccc(S(=O)(=O)N4CCCC4)cc32)cc1`, the “activity change, positive = activation” value was inactive: -0.839%.

Consider `CC(C)N(CCCNC(=O)Nc1ccc(C(C)(C)C)cc1)C[C@H]1O[C@@H](n2cc(Br)c3c(N)ncnc32)[C@H](O)[C@H]1O`, for which the “activity change, positive = activation” value was inactive: -74.2%.

`CCc1ccc(-c2nc(CSCC(=O)NCc3ccccc3OC)c(C)o2)cc1`: the “activity change, positive = activation” value was inactive: -41.6%.

Consider `Cc1ccc(-c2nc3c(c(SCC(=O)N4CCCCC4)n2)Cc2cc(C)ccc2O3)cc1`, for which the “activity change, positive = activation” value was inactive: 1.64%.

As for `CC(C)=CCC[C@@](C)(O)[C@H]1CC=C(C)CC1`, the “activity change, positive = activation” value is inactive: -2.52%.

With `CCn1c(CNC(=O)c2ccc(OC)cc2)nnc1SCC(=O)Nc1ccc(OC)cc1`, the “activity change, positive = activation” value was inactive: -6.01%.

As for `Cn1c(=O)oc2cc(S(=O)(=O)CCC(=O)NCc3ccccc3)ccc21`, the activity change, positive = activation was inactive: 4.96% [at 11.5 µM, percent change from vehicle, -100% = no light].

As to `CCOc1ccc(N2CC(c3nc(-c4cc(OC)c(OC)c(OC)c4)no3)CC2=O)cc1` (centres undefined), the “activity change, positive = activation” value was inactive: -2.91%.

For the compound `CCOc1ccc(N(C)S(=O)(=O)c2ccc3c(c2)C(C)(C)C(=O)N3C)cc1`, the “activity change, positive = activation” value is inactive: -7.05%.

With `Cc1ccc(C)c(NC(=O)C2CCCN(S(=O)(=O)c3c(C)noc3/C=C/N(C)C)C2)c1` (centres undefined), the “activity change, positive = activation” value is inactive: -25.4%.

Take `Cc1ccc(-n2nnc3c(sc4nc(C)c(C)cc43)c2=O)cc1Cl`: the “activity change, positive = activation” value was inactive: 2.54%.

In the case of `COc1cccc(N2CC(NC(=O)c3ccc(S(=O)(=O)N4CCCC4)cc3)CC2=O)c1` (centres undefined), the “activity change, positive = activation” value is inactive: -16.5%.

With `O=C(NC1CCCC1)c1c[nH]c2ccc(S(=O)(=O)Nc3cccc(C(F)(F)F)c3)cc2c1=O`, the “activity change, positive = activation” value was inactive: -43.9%.

Consider `CCOC(=O)c1c(C)oc2nc(C)nc(NCC3CCN(Cc4ccc(Cl)cc4)CC3)c12`, for which the “activity change, positive = activation” value was inactive: -12.4%.

With `CCN(c1ccccc1)S(=O)(=O)c1nnc(NC(=O)COc2ccc(OC)cc2)s1`, the “activity change, positive = activation” value was inactive: -20.4%.

As for `O=C1C(CCC(O)c2ccc(F)cc2)C(c2ccc(O)cc2)N1c1ccc(F)cc1` (centres undefined), the “activity change, positive = activation” value is inactive: -20.6%.

For `COCCNC(=O)C1CCN(S(=O)(=O)c2ccc3c(c2)CCCN3C(C)=O)CC1`, the “activity change, positive = activation” value was inactive: -5.31%.

For `CCOC(=O)c1[nH]c(C)c(CCC(=O)N2CCN(c3ccccc3)CC2)c1C`, the “activity change, positive = activation” value is inactive: -11.9%.

For the compound `COc1ccc(-c2nc3n(n2)C(c2ccc(OC)cc2)C(C(=O)Nc2cccnc2)=C(C)N3)cc1` (centres undefined), the “activity change, positive = activation” value was inactive: -21%.

In the case of `Clc1cccc(CNc2ncnc3c2nc2n3CCCC2)c1`, the “activity change, positive = activation” value is inactive: -7.78%.

For `COc1ccc(-n2ncc3c(N4CCN(c5cccc(C)c5)C(C)C4)ncnc32)cc1` (centres undefined), the “activity change, positive = activation” value is inactive: -94%.

As for `CCOc1ccc(Cn2c(=O)oc3ccccc32)cc1`, the “activity change, positive = activation” value was inactive: -6.58%.

Take `Cc1ccc(-c2noc(COc3ccc(Br)c(C)c3)n2)cc1`: the “activity change, positive = activation” value was inactive: -14.6%.

Regarding `O=C1C(=O)c2ccccc2C(O)=C1C1CCC(c2ccc(Cl)cc2)CC1` (centres undefined), the “activity change, positive = activation” value is inactive: -2.73%.

Turning to `COc1ccc(Cl)cc1NC(=O)CCc1nc(-c2ccccc2F)no1`, the “activity change, positive = activation” value was inactive: -27.3%.

As for `Cn1cc(C2=C(c3c4n(c5ccccc35)CCC(CN)C4)C(=O)NC2=O)c2ccccc21` (centres undefined), the “activity change, positive = activation” value is inactive: 24.1%.

With `O=C(Cn1c(=O)n(Cc2ccc3c(c2)OCO3)c(=O)c2ccccc21)Nc1cccc(Cl)c1`, the “activity change, positive = activation” value is inactive: -26.8%.

On to `Cc1c(C(=O)N2CCCC2)oc2c1-c1nn(CC(=O)NCc3cccc(Br)c3)cc1CC2`, for which the “activity change, positive = activation” value is inactive: -21.6%.

On to `NS(=O)(=O)c1ccc(NC(=O)CCn2c(=O)oc3ccccc32)cc1`, for which the “activity change, positive = activation” value was inactive: -9.24%.

For the compound `COc1ccc(NC(=O)N2CCc3c(sc4c3CCCC4)C2c2ccc(F)cc2)cc1` (centres undefined), the “activity change, positive = activation” value is inactive: -22.2%.

Take `O=C(CCSCc1ccccc1F)N1CCN(c2ccc(F)cc2)CC1`: the “activity change, positive = activation” value is inactive: -2.41%.

On to `Cn1cc(C(=O)NCc2ccc(F)cc2)c(=O)c2cc(S(=O)(=O)N3CCCCC3)ccc21`, for which the “activity change, positive = activation” value was inactive: -17.6%.

As for `CCOc1ccccc1NC(=O)Cn1c(=O)n(Cc2ccc(C(=O)NCCCOC)cc2)c(=O)c2ccccc21`, the “activity change, positive = activation” value was inactive: -6.51%.

For the compound `COc1cc(OC)c(NC(=O)c2oc3ccc4c(c3c2C)C(=O)CC(C)(C)O4)cc1Cl`, the “activity change, positive = activation” value was inactive: -3.24%.

Consider `O=C(O)c1cccc(NC(=O)c2cccc(S(=O)(=O)Nc3cccc(C(=O)O)c3)c2)c1`, for which the “activity change, positive = activation” value is inactive: -1.5%.

With `CCn1c(=O)c2cc(C(=O)N(C)c3cc(C)ccc3C)sc2c2ccccc21`, the “activity change, positive = activation” value is inactive: -2.37%.

For `CC(C)c1ccc(Nc2nc3ccc(C(=O)c4ccccc4)cc3n3cnnc23)cc1`, the “activity change, positive = activation” value is inactive: -36.5%.

As for `CCN(C(=O)c1sc2nc3n(c(=O)c2c1C)CCCCC3)c1ccccc1F`, the “activity change, positive = activation” value is inactive: -5.74%.

Turning to `Cc1ccc(NC(=O)Nc2nnc(N3CCCCC3)s2)c(C)c1`, the “activity change, positive = activation” value is inactive: -12.1%.

Consider `CCc1ccc(CNC(=O)c2cc3c(=O)oc4ccc(C)cc4c3s2)cc1`, for which the “activity change, positive = activation” value is inactive: -4.69%.

In the case of `COc1ccc(NC(=O)c2ccc3snnc3c2)cc1OC`, the “activity change, positive = activation” value is inactive: -0.892%.

`CN(C)C(=O)c1ccc(S(=O)(=O)NCc2ccccc2Cl)s1`: the “activity change, positive = activation” value is inactive: -2.64%.

`COc1cc(OC)cc(-n2c(=O)[nH]c3cc(C(=O)NCCc4ccc(C)cc4)ccc3c2=O)c1`: the “activity change, positive = activation” value was inactive: 19.6%.

In the case of `CC1=C(c2ccc(C)c(C)c2)S(=O)(=O)N=C1N1CCN(c2cccc(C(F)(F)F)c2)CC1`, the “activity change, positive = activation” value is inactive: -6.19%.

For the compound `Cc1ccc(NC(=O)Cn2c(=O)n(-c3ccc(CC(=O)NCC4CCCO4)cc3)c(=O)c3ccccc32)cc1` (centres undefined), the “activity change, positive = activation” value is inactive: -15.5%.

`COCCCNC(=O)Cn1c(=O)n(CCCC(=O)NCc2ccc(C)cc2)c(=O)c2ccccc21`: the “activity change, positive = activation” value is inactive: -3.23%.

As for `CCCC(=O)N(c1ccc2oc(-c3ccccc3)c(C(=O)OCC)c2c1)S(=O)(=O)c1ccc(C)cc1`, the “activity change, positive = activation” value is inactive: -13.7%.

Take `Cc1ccc(/C=C(\C#N)c2nc(-c3cc4c(ccc5ccccc54)oc3=O)cs2)cc1`: the “activity change, positive = activation” value was inactive: -21.4%.

Turning to `O=C(NCC(c1ccc2c(c1)OCO2)N1CCOCC1)c1ccc(F)cc1` (centres undefined), the “activity change, positive = activation” value was inactive: -13.2%.

Regarding `CCCCN1CC(c2nc3ccccc3n2CCCCOc2c(C)cccc2C)CC1=O` (centres undefined), the “activity change, positive = activation” value was inactive: -50%.

Turning to `CCOc1ccc(Sc2cc(C(=O)NCCc3ccc(OC)c(OC)c3)c3ccccc3n2)cc1`, the “activity change, positive = activation” value is inactive: -35.6%.

Regarding `COc1ccc(-c2nn(-c3ccccc3)cc2C(=O)Nc2ccccc2OC)cc1`, the “activity change, positive = activation” value was inactive: -19.5%.

Take `CCn1cc(C(=O)N2CCN(c3ccccc3OC)CC2)c(=O)c2cc(S(=O)(=O)N3CCCCC3)ccc21`: the “activity change, positive = activation” value was inactive: -10.7%.

Take `CC(C)CN(c1ccccc1)S(=O)(=O)c1nnc(NC(=O)c2ccco2)s1`: the “activity change, positive = activation” value is inactive: -48.7%.

As for `Cc1cccc(C(=O)Nc2ccccc2-c2nc(-c3ccccc3)no2)c1`, the “activity change, positive = activation” value was inactive: -1.76%.

Regarding `O=c1c2oc3ccccc3c2n(Cc2ccccc2F)c(=O)n1Cc1ccco1`, the “activity change, positive = activation” value was inactive: -13.1%.
